Experimental data reported in a compilation of properties of binary mixtures (doi:10.1016/j.molliq.2019.111632).
The densities may have been worked out from excess volumes.

Test: xn = mol fraction of the nth substance listed
Conditions: 101 kPa

CCCC[n+]1ccn(C)c1.F[P-](F)(F)(F)(F)F + CC(C)=O
mass density [kg/m3]
Conditions	293.15 K	295.15 K	297.15 K	299.15 K	301.15 K	303.15 K
x1 = 0.0448	–	872.8	870.8	869	867	–
x1 = 0.0999	952	950	949	–	945	943
x1 = 0.166	1019	1017	1015	1013	1011	1010
x1 = 0.2	1059	1057	1055	1054	1052	1050
x1 = 0.284	1124	1122	1121	1119	1118	–
x1 = 0.377	–	1179	1177	1175	1174	1172
x1 = 0.49	1234	1233	1231	1229	1228	1226
x1 = 0.578	1268	1266	1265	1263	1262	1260
x1 = 0.673	1298	1297	1295	–	1292	1290
x1 = 0.745	1313.6	1311.9	–	1309	1307.3	1305.6
x1 = 0.803	1332.1	1330.4	–	1327.5	1325.9	–
x1 = 0.889	1350.5	1348.8	–	1345.9	1344.3	1342.6
x1 = 0.943	–	1359.3	1357.7	1356.4	1354.8	1353.1
